This note sets out measurements from publication PMC10043283, “Neuraminidase 1 promotes renal fibrosis development in male mice” (Nature Communications, 2023).

Sequences of proteins named here, by UniProt entry; tags and fusion partners are left off. Residues count along the entry.
UniProt Q13705, residues 19-512: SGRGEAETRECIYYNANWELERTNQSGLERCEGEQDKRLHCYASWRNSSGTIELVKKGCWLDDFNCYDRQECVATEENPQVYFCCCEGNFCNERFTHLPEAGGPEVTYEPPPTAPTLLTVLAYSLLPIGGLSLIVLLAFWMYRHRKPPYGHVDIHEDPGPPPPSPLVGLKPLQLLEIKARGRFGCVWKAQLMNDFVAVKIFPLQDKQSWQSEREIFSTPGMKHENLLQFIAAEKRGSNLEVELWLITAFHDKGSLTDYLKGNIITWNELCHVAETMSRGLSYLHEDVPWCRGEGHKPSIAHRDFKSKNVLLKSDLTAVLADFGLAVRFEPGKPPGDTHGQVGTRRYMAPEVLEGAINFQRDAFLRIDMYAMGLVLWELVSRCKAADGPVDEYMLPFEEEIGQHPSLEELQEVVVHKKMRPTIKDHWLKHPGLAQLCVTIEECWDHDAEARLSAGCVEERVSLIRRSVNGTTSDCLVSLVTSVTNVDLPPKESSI
UniProt P36894, residues 24-532: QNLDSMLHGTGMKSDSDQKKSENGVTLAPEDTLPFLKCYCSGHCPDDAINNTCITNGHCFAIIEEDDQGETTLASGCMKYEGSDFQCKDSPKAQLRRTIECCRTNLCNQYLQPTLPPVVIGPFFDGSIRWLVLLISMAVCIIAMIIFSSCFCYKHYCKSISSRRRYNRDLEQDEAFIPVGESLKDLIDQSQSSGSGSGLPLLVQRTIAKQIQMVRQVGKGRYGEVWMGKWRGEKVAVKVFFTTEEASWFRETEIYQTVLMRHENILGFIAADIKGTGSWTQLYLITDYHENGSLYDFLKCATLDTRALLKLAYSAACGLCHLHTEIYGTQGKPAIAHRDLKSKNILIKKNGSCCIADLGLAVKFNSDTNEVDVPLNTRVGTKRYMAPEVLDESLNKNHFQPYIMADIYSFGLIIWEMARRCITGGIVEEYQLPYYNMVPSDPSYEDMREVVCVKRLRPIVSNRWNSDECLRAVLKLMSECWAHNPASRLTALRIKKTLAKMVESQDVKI
UniProt O00238, residues 14-502: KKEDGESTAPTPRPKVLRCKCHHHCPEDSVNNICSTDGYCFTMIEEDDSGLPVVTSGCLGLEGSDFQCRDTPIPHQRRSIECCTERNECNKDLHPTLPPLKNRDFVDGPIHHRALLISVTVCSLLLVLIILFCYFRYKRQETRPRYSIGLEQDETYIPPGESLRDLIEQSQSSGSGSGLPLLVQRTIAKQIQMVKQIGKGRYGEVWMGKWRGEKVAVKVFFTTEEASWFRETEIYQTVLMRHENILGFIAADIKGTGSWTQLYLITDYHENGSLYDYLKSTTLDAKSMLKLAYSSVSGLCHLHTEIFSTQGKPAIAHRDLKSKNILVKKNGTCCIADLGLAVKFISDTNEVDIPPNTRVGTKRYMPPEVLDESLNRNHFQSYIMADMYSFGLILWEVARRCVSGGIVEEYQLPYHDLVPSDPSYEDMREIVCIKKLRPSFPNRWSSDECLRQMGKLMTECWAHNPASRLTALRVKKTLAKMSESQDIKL
UniProt P37173, residues 23-567: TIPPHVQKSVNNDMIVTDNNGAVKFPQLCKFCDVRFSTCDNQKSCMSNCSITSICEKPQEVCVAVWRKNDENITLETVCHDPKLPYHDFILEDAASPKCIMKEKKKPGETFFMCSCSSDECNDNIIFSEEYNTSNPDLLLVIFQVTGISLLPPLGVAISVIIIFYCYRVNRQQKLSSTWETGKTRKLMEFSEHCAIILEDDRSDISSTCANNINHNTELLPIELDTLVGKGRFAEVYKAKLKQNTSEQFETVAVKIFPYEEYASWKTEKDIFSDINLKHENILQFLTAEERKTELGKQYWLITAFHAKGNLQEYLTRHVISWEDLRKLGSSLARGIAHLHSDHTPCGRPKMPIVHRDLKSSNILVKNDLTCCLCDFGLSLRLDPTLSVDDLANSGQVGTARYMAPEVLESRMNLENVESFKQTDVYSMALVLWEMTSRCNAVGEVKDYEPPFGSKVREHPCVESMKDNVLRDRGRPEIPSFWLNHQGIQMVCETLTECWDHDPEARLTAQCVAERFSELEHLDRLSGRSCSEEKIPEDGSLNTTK

No constants are given. Whether binding was seen depends on the method and setting. Binding seen in cells or lysates may run through a third protein. Some binding calls cover weakened binding; strength is not graded here.

This experiment deals with HA-NEU1 (neuraminidase 1) (UniProt Q99519). Nature of the experiment: co-IP; HEK293T cells transfected with HA-NEU1 and Flag-tagged receptor plasmids; lysis in 25 mM Tris-HCl pH 7.4, 150 mM NaCl, 1% NP-40, 1 mM EDTA, 5% glycerol; Flag-tag or HA-tag antibody on Protein A/G magnetic beads; western blot. For orientation: A western blot detects proteins with antibodies after separation by electrophoresis.
As to “Flag-ACVR2B (from UniProt Q13705 19-512) (receptor)”, the binding result was “binds”. As for “Flag-ALK1 (from UniProt P37023 22-503) (receptor)”, the binding result is given as “binds”. For “Flag-ALK3 (from UniProt P36894 24-532) (receptor)”, the binding entry is given as “no binding”. In the case of “Flag-ALK6 (from UniProt O00238 14-502) (receptor)”, the binding result was “no binding”. Regarding “Flag-TGFBR2 (from UniProt P37173 23-567) (receptor)”, the binding result is given as “no binding”.
